# Reference: PubChem BioAssay AID720709 (National Center for Advancing Translational Sciences (NCATS), 2013)
# The campaign covered roughly 360,000 compounds. About 520 (0.14%) were called active. The inconclusive results got no clear call from the source; some entries with a clear call stand among them for comparison. The call rests on the fitted dose curve; in most records, active means well fitted inhibition curve with a large enough effect; inconclusive means small, poorly fitted or top-dose-only effect; inactive means no such curve, though single readings can be large or run the other way. No potency is given beside an inconclusive call; the fits are too rough.
# Molecular target: Rap guanine nucleotide exchange factor 3 (Homo sapiens) (UniProt O95398)
# Assay: qHTS for Antagonist of cAMP-regulated guanine nucleotide exchange factor 3 (EPAC1): primary screen; further: nearly all actives have a fitted effect of over 50% in size;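 on activity change, negative = inhibition: plate controls were vehicle for no effect and positive control for full effect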
# Settings: EPAC1 GEF assay, Rap1b-BODIPY-GDP exchange fluorescence; activity change, negative = inhibition: at 115 µM (top of the series)
# Potency means the concentration at half of the fitted maximal effect; tags describe the fitted curve by direction and shape.
# Sequence of UniProt O95398 (O95398 whole entry, looked up): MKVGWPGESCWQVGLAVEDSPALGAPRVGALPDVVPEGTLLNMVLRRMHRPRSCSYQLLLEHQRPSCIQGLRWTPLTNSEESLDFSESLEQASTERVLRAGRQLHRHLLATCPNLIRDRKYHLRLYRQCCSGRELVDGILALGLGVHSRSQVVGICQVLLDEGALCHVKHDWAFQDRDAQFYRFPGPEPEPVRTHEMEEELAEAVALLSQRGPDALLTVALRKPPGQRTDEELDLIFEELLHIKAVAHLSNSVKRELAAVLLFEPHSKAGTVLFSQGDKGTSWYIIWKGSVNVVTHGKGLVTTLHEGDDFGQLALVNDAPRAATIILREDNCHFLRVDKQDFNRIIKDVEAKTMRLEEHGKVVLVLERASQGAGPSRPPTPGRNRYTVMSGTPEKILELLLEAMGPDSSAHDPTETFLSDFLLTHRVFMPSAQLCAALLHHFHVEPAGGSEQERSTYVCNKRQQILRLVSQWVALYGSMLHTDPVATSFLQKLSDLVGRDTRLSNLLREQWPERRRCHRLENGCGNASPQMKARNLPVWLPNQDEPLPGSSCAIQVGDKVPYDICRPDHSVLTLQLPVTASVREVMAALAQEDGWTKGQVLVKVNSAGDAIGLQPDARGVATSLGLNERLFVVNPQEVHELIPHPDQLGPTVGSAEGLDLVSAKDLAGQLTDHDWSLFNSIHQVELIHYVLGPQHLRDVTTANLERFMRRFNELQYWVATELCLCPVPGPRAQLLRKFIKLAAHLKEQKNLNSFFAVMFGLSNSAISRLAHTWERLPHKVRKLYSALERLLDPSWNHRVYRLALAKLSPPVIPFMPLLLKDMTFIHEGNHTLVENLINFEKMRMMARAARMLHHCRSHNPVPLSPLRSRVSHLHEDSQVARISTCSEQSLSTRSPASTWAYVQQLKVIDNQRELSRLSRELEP
SMILES,Potency,"activity change, negative = inhibition"
COc1ccccc1Cc1c(-c2ccco2)nc2ccc(Br)cn12,"inconclusive [inhibitor, partial curve]",
Cc1cnc(C(=O)OCc2nc3ccsc3c(=O)[nH]2)cn1,"inconclusive [inhibitor, single point]",
COc1ccc(-c2cc(C(=O)OCc3ccccn3)c3ccccc3n2)cc1,"inconclusive [inhibitor, full curve]",
Cn1c(CC(=O)Nc2ccccc2F)nnc1SCC(=O)NC1=NCCS1,"inconclusive [inhibitor, single point]",
CCC(C(=O)Nc1cc(C(=O)Nc2cc(C)ccn2)ccc1Cl)c1ccccc1 (configuration not stated),"inconclusive [inhibitor, partial curve]",
CC(=O)N1Cc2cc(C(=O)NCc3cccc(F)c3)nc(-c3cccc(C4=CCCCC4)c3)c2[C@H]1CCO,inactive,
CCCCCCCCNS(=O)(=O)CCNCc1ccccc1,"inconclusive [inhibitor, partial curve]",
Cn1cc(-c2cnc3c(NC=O)cc(-c4cccc(C(F)(F)F)c4)cn23)cn1,"inconclusive [inhibitor, partial curve]",
Cc1cn(-c2cccnc2)c(C)c1CNC[C@H]1O[C@@H](n2cnc3c(N)ncnc32)[C@H](O)[C@@H]1O,"inconclusive [inhibitor, single point]",
Cc1ccc(-c2nnn(CC(=O)Nc3ccccc3-c3ccccc3)n2)c(-n2cnnn2)c1,"inconclusive [inhibitor, full curve, poor fit]",
COC(=O)CCCC1=CC2=CC(=O)C(C)(OC(=O)CCc3ccccc3)C(=O)C2=CO1 (configuration not stated),"inconclusive [inhibitor, partial curve]",
Cc1cc(C)n(CC(=O)O)c(=O)c1[N+](=O)[O-],"inconclusive [inhibitor, single point]",
CCCCc1c(O)nc(SCC(=O)N2CCCCC2)[nH]c1=O,"inconclusive [inhibitor, single point]",
O=C(COC(=O)c1ccccc1NS(=O)(=O)c1ccc(Cl)cc1)NCc1ccccc1,"inconclusive [inhibitor, single point]",
Cc1cccc(NC(=O)CN2CCc3cc4c(cc3C2C)OCCCO4)c1 (configuration not stated),,inconclusive: -19.1% [inhibitor]
Cc1nc(NC(=O)CN2CCN(c3ccccc3F)CC2)sc1C(=O)N(C)C,"inconclusive [inhibitor, partial curve]",
O=C1S/C(=C\c2ccc(O)c([N+](=O)[O-])c2)C(=O)N1c1ccccc1Cl,active: 56.2 µM,
